The densities may have been worked out from excess volumes.
Assay: xn = mol fraction of the nth substance listed
Settings: 101 kPa

CC(=O)[O-].CC[n+]1ccn(C)c1 + O
mass density [kg/m3]
Settings	298.15 K	303.15 K	308.15 K	313.15 K	318.15 K	323.15 K	328.15 K	333.15 K	338.15 K
x2 = 0	1101.9	1098.8	–	1092.7	1089.7	–	–	1080.6	1077.7
x2 = 0.0258	–	–	1096.1	1093	1090	1087	–	1081	1078
x2 = 0.0374	1102.3	1099.3	1096.2	1093.2	1090.1	1087.1	1084.1	1081.1	–
x2 = 0.0488	–	1099.4	1096.3	–	1090.3	1087.3	1084.3	1081.3	1078.3
x2 = 0.0599	1102.6	1099.6	–	–	1090.4	1087.4	–	1081.4	–
x2 = 0.0725	–	1099.7	1096.6	1093.6	1090.6	1087.6	1084.6	–	1078.6

Source: a compilation of properties of binary mixtures (doi:10.1021/ie401130d)
